# In PMC5836133:
# Some of the results follow. At the low end of the ranking the order means little.
# Tested on: T1, GST-NbGlk1(82-244)
# T1 sequence: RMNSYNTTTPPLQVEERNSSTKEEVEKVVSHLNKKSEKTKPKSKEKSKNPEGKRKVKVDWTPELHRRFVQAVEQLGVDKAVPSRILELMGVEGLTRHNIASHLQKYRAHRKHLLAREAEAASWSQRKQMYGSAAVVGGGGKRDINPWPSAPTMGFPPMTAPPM
# Assay: protein-binding microarray;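 note: rank-based score ranging −0.5 to +0.5 with E above 0.45 taken as significant binding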
# Conditions: NbGlk1 is a Golden2-like transcription factor of Nicotiana benthamiana; high values mean tight binding; most listed sequences are background and not binding sites; double strand, one strand shown
row,Sequence,binding signal [E-score]
1,CACCTTCC,-0.165
2,CAGCGCGA,0.038
3,ACCCTACG,-0.108
4,AATCGTAG,0.291
5,ATACAATG,-0.103
6,AATGCGGT,-0.077
7,AATAACGG,0.0191
8,AAAATATT,0.316
9,AGTCGTCG,-0.221
10,ATTCTTCC,0.221
11,AGCCATAA,-0.11
12,CAAACATA,-0.0374
13,AGCTCCCG,-0.156
14,AATTGAAC,0.0227
15,ACGAAAGT,0.00133
16,ACTGGCCG,-0.101
17,ATGTCTCC,-0.0271
18,AGTCTTCG,-0.155
19,AGCGGGCC,-0.318
20,AACGCGCC,-0.161
21,AGAGGAAC,-0.262
22,ACCTAGCA,-0.146
23,ACCTGTCT,-0.0384
24,ACTGCTCT,-0.0249
25,AATGTTAT,0.109

row,Sequence,binding signal [E-score]
1,AACCTCCA,-0.252
2,ATGTGAAG,0.107
3,ACTCTGCC,-0.00764
4,CAGCAAAA,0.106
5,ATAACGAA,0.184
6,AGCATTTA,0.102
7,AGATCTTG,0.373
8,AATTGAGG,0.0592
9,ACAATCTA,0.38
10,ATAAAGAT,0.279
11,AGAACTGA,0.0646
12,ACCCAAGG,-0.275
13,AAATCAGC,0.363
14,AGGTCGCG,-0.195
15,ACAGAGGC,-0.251
16,CACACCTG,-0.116
17,AGTATGCA,0.0583
18,ATTTAGTG,0.096
19,CAAAGGTC,-0.0929
20,ACCCAATC,0.0743
21,AACCATTA,-0.015
22,ACGAACGA,0.0306
23,AAAGCAGT,-0.158
24,ACCTTATA,-0.0146
25,AAGAGCGG,-0.153

row,Sequence,binding signal [E-score]
1,ATTACCTC,0.23
2,CAGATGCC,-0.0923
3,CAACCTGC,-0.222
4,AAGTCCTG,-0.176
5,AAATTGAC,-0.0724
6,AGCAGCGA,-0.0508
7,ACCTTGGC,-0.147
8,AAGCTGGG,-0.0369
9,ACCTTACC,-0.141
10,ATCCATAG,0.124
11,CACGATGA,-0.0867
12,ATTGCATA,0.29
13,ACCTCTAT,-0.0919
14,AGACCTAA,-0.0496
15,ACTGGCCA,-0.154
16,AATACGGG,0.0313
17,AGATACAG,0.07
18,ATGTTGTC,0.0612
19,ATAAGAGG,-0.147
20,AAATATCT,0.407
21,ACAGACCC,-0.185
22,ATAAGCGC,-0.0643
23,ACGGAGAC,-0.125
24,AGATCGTA,0.283
25,CACTCCCC,-0.126

row,Sequence,binding signal [E-score]
1,AAAACCAT,-0.0642
2,ACCTGAAA,0.067
3,AGCCGAGC,-0.234
4,ACCTATAT,0.113
5,ACGCTTAG,-0.08
6,AGCGGCTA,-0.259
7,ATCCCAGA,0.276
8,CACGAGCG,-0.16
9,ACTCGATG,-0.16
10,ATCGGGGC,0.0347
11,ACTAAAGG,-0.105
12,AGTGAGGA,-0.115
13,ATCTCCGG,0.318
14,AAAGTCTA,-0.0963
15,AGGAAAGG,-0.269
16,ATATGTGC,0.149
17,AATAAGGG,-0.0847
18,AATCTGTG,0.411
19,CACTGCCG,-0.121
20,AACGGACT,-0.221
21,ATTAATTG,0.165
22,AGGAACCT,-0.235
23,AGGGCCAT,-0.307
24,ATAAGTAC,0.0637
25,CAATTAAC,-0.00938

row,Sequence,binding signal [E-score]
1,CAGCAGAA,-0.0446
2,CAAGTGGA,-0.107
3,ATCCGGAT,0.422
4,AATTCGTG,-0.0511
5,AATGAGAG,-0.121
6,CAACGGCG,-0.176
7,ATGTTCAC,-0.0288
8,AATTTGTC,0.123
9,CAATGAAG,0.0497
10,AGTGTATG,0.0235
11,CAACTAAA,0.0955
12,ATGTGTCG,-0.0713
13,AGCATGCT,-0.215
14,ATGTACCA,0.00685
15,ACTAGTAG,-0.125
16,ATCCTCCC,0.225
17,CAGCACGC,-0.218
18,AAGTTTGC,-0.0642
19,CACGGGCA,-0.173
20,AAGTAGGG,-0.0233
21,CAACTAGA,0.0228
22,AAAGGATG,-0.0491
23,ATCGAGAA,0.236
24,ACGTGGCG,-0.0601
25,AGACCTGG,-0.165

row,Sequence,binding signal [E-score]
1,AGAAAAGC,-0.0247
2,ACCCCTCC,-0.2
3,AGGAGAGC,-0.327
4,AATAGGAT,0.218
5,AACAGCGT,-0.0802
6,CACGCACG,-0.0203
7,ATCACACG,0.129
8,AGAGAGGC,-0.403
9,AGTCCCGC,-0.256
10,AGGGGATG,-0.257
11,AAAGCGAA,0.0452
12,ACCCACGA,0.0368
13,CAGCGTAG,-0.177
14,AGCGCCTA,-0.129
15,AAACAGCA,-0.0627
16,AGCGTTAA,0.00763
17,ACGCTTCG,-0.00731
18,CAAATCTG,0.43
19,ATAAGGTC,-0.17
20,AGGGAAAC,-0.00923
21,CAGAAACA,0.0737
22,AAATAAGG,0.08
23,AGCTACGG,-0.108
24,ACGTCACC,-0.0572
25,AAGGATCG,0.129

row,Sequence,binding signal [E-score]
1,AGATGCGA,0.0577
2,AGGCGGTA,-0.127
3,AACGATTC,0.214
4,ATCATTCA,0.0496
5,AGGAAGCA,-0.0662
6,ACGTCTCC,-0.25
7,ACAGTGGG,-0.215
8,CACCTCTA,-0.204
9,AGGACTCA,-0.182
10,ACCACCCC,-0.137
11,ACAACTAG,-0.174
12,AGGTACCC,-0.24
13,AGCGCGCC,-0.192
14,CAGCCGTC,-0.231
15,AGATTGGA,0.154
16,ATCAAACA,0.0561
17,AACTGGCC,-0.106
18,AAATCGCT,0.295
19,ATGGGGAA,-0.024
20,AGATCGCT,0.346
21,AGCCTGAA,-0.155
22,AGCTGACC,-0.241
23,ACTGAGAG,-0.103
24,ATTATAAT,0.307
25,AATTACGA,0.239

row,Sequence,binding signal [E-score]
1,AAGTCGGC,-0.161
2,AAAGAAGT,0.077
3,AAGCCAGA,-0.0963
4,AAAGAAAG,0.021
5,ATTCATCA,0.125
6,ACATGACG,-0.149
7,AATATACG,0.253
8,AAGTTGCT,-0.174
9,CAGCAAAC,0.0155
10,AATGCCAA,-0.15
11,ACACTCTA,0.0709
12,AAAATGTC,-0.0534
13,ATGGTTAA,0.074
14,ACGCCAAT,0.00469
15,AGCCGGAT,0.129
16,ACGTGTCC,-0.177
17,CACGTTCA,-0.179
18,AGACCGGG,-0.226
19,ACTTCCCA,-0.161
20,AGATGTGA,-0.0851
21,AGACGGGA,-0.0756
22,AAAAGAGA,0.00507
23,AACCTTCA,0.00171
24,AGTTCTTA,-0.0357
25,AGACTTTA,-0.0821

row,Sequence,binding signal [E-score]
1,ATTAGCGC,-0.118
2,AGTATATG,0.114
3,AGAGGCAC,-0.175
4,AAGTTCCT,-0.176
5,ATCAATAG,0.157
6,ACTAGGAA,0.0624
7,CAGAATTC,0.234
8,AGCAATAC,0.167
9,AGCTGAGC,-0.114
10,ACTAGGTC,-0.274
11,CACGGCTA,-0.136
12,CACAGGAA,-0.0682
13,ACGTGCGC,-0.11
14,CAATGACG,-0.0953
15,AGGCCGAT,-0.0713
16,AACCATCC,-0.117
17,AATGATGA,0.0583
18,AATCTTAC,0.375
19,ATCTTCCG,0.316
20,AGTAAGAA,0.214
21,CACGCAGC,-0.217
22,ACGGTGCA,-0.0251
23,ATAGATAC,0.26
24,ACCACTGG,-0.207
25,ACCTAAAC,-0.0643

row,Sequence,binding signal [E-score]
1,CACGACGG,-0.238
2,CACTGATG,-0.0898
3,ATCTCCGC,0.293
4,AGCGAGAC,-0.0553
5,AAACCATC,-0.128
6,ACGATCGC,0.252
7,AAAGCATG,-0.0603
8,ATAATGAT,0.14
9,ACCAAGAA,0.0219
10,ATACCATC,0.0206
11,AATATGCA,0.16
12,ATTGCTCG,0.0577
13,AGCTTCCG,-0.131
14,AGAAGCAT,-0.0575
15,AATCAGCA,0.322
16,AGCTGGAG,-0.177
17,ATTGGGGC,-0.0369
18,CACCGGCC,-0.193
19,ACCTCGCT,-0.241
20,ACACAGTC,-0.098
21,AACTTAGG,-0.0227
22,ACCTACCC,-0.0568
23,AAGACAAG,-0.054
24,ACAATTGA,0.0791
25,AGTCTCTG,-0.0468

row,Sequence,binding signal [E-score]
1,AGCAATTA,0.0438
2,AAAGGTTC,-0.0213
3,CAAGCCTA,-0.143
4,AAGCAATA,0.111
5,AGGCAGTA,-0.0286
6,AAGTACGT,-0.041
7,ACGTCTAC,-0.216
8,AAACCACT,0.0141
9,ACATGATG,-0.0786
10,AATGAAGG,-0.0153
11,AAGCAGAC,-0.0365
12,ATCGAAAT,0.387
13,AACTAAGT,-0.116
14,CAGCGCCC,-0.252
15,ATGGGTTA,-0.023
16,AGCCCCCT,-0.324
17,AGCCAAGA,-0.0527
18,AGTGTTAC,-0.0537
19,AGCTGAAT,-0.1
20,ACCGAACG,-0.108
21,ACCCCTTA,-0.0928
22,AATTCTGC,0.204
23,ATTAATGG,-0.0227
24,AGTGGCGA,0.0591
25,ACCGGAGA,0.0207

row,Sequence,binding signal [E-score]
1,ATAGTGTC,-0.0267
2,AGAGTTGG,-0.129
3,ATCAACTA,0.088
4,AACGAGCC,-0.189
5,ACTTGGAG,-0.154
6,CACTGGAG,-0.105
7,ACACACAT,-0.0292
8,ATGAGGTG,-0.0248
9,ACGTTAGC,-0.176
10,AACTCTAG,-0.106
11,AGATACGC,0.422
12,AGGTGCAA,-0.0203
13,AAAGAGCA,-0.0635
14,AGCATCCA,-0.0946
15,AGCGTACT,-0.0933
16,CACGCTCA,-0.17
17,ACAAATGG,-0.1
18,AATATCTG,0.423
19,AAGGTTGC,-0.218
20,ACGTTCAC,-0.12
21,CACCCCAA,-0.16
22,CAGAGACC,-0.219
23,CACTCTTC,-0.175
24,ATAAGGAT,0.22
25,CACTAGCG,-0.168

row,Sequence,binding signal [E-score]
1,ACTCGGGC,-0.271
2,AAGAACCC,-0.162
3,AACTGGGC,-0.284
4,CACCGGTA,-0.0313
5,ACGTCGTG,-0.0132
6,AGGCTGAC,-0.163
7,AGATATCA,0.434
8,AGTCACAT,-0.13
9,AAGTTGCC,-0.168
10,AATAAACC,-0.162
11,AAAGTTAT,-0.0306
12,AGCTGTGC,-0.166
13,AGCGAGAA,-0.0484
14,AGCCCCGC,-0.211
15,AGTGACAT,-0.0431
16,AAGTAGCT,-0.204
17,CACGCCCC,-0.34
18,CAGAGTGG,-0.127
19,CACAATAG,0.102
20,ACATCTCA,-0.0129
21,CAACAGAA,0.0376
22,ACGGAACT,-0.0812
23,ACCCGACT,-0.167
24,ACAACAAC,-0.0759
25,AGAGTAAG,0.0707

row,Sequence,binding signal [E-score]
1,ACGTCACA,-0.00686
2,ACTGTATA,0.0879
3,AACATACA,0.168
4,AGCGGAAG,-0.147
5,AATACAGA,0.148
6,ATATCTAC,0.392
7,AGAGCACG,-0.199
8,AGCAACAG,-0.125
9,AGACGGTG,-0.157
10,ACTCAAGT,-0.03
11,ACCGATTG,0.114
12,CAGCGCAC,-0.196
13,AAGAGTGT,-0.138
14,ACAGCTCA,-0.188
15,ATTGAGTA,0.0266
16,ATTCCTAG,0.202
17,ACTCTTGC,-0.159
18,ACTTTAAG,0.0156
19,AGCTACTC,-0.279
